Laboratory results as given in ChEMBL document CHEMBL4888484, “Replenishing the malaria drug discovery pipeline: Screening and hit evaluation of the MMV Hit Generation Library 1 (HGL1) against asexual blood stage Plasmodium falciparum ,using a nano luciferase reporter read-out” (2022).
In all, about 150,000 compounds went through this assay and about 540 (0.36%) showed an effect of 50% or more. This is one part of the list.

System: Plasmodium falciparum
Assay: Primary screen in NF54 nanoGlo assay, in single point, at 2uM, 72h; a lower Z score goes with more inhibition
Format: functional, Erythrocyte
Conditions: timepoint 72 hour

SMILES | % Inhibition [%] | Z score
Cc1noc(C)c1C(=O)Nc1sc2c(c1C#N)CC[C@H](C)C2 | -11 | 1.57
CCOC(=O)c1c(C)[nH]c(C(=O)OC)c1CCC(=O)OC | -9 | 1.59
[O-]c1c(-c2ccccc2)sc2c3ccccc3c(-c3ccc(Cl)cc3)n[n+]12 | -9 | 1.14
CS(=O)(=O)[C@H]1CCN(C(=O)NCCc2ccc(Cl)s2)C1 | -12 | 1.8
COc1ccc(NC(=O)Cn2cc(C(=O)N3CCCC3)c(=O)c3ccc(C)nc32)cc1 | -6 | 0.83
CCCc1ncncc1C(=O)N1CC[C@]2(OC)CC[C@H](O)C[C@H]12 | 2 | -0.25
CC1CCC(N2CCN3C(=O)c4ccccc4OCC[C@@H]4CC[C@@H](NC(=O)NC(C)C)[C@@H](CNC(=O)[C@@H]3C2)O4)CC1 (some centres undefined) | -9 | 1.32
CCCc1cc(C(=O)N2CC[C@@H]3OCc4cccc(c4)Oc4ccc(cc4)CCC(=O)N(CCCO)CC(=O)N[C@H]3C2)[nH]n1 | -1 | 0.22
Cc1cnn(-c2ccncc2NS(C)(=O)=O)c1 | 33 | -4.45
Cc1c[nH]c(C2(NC(=O)[C@@H]3C[C@]3(C)c3ccccc3)CCOCC2)n1 | -5 | 0.56
CN(C(=O)C1C(C(=O)O)C1(C)C)c1ccccc1OC(F)F (centres undefined) | 36 | -4.11
Cc1nc(CNC(=O)C2CCC(C(F)(F)F)NC2=O)sc1C (centres undefined) | 2 | -0.24
CS(=O)(=O)N[C@H]1CCN(Cc2coc3ccccc23)C1 | -12 | 1.74
CCc1[nH]c2ccc(CNC(=O)[C@H]3CCc4nn(C)c(=O)n4C3)cc2c1C | 7 | -0.95
CN(Cc1ccc(-n2cccn2)cc1)C(=O)C[C@H]1COCCN1 | 0 | -0.01
O=c1cc(-c2ccccc2)n(S(=O)(=O)c2ccccc2)o1 | 38 | -4.94
CNS(=O)(=O)CCNc1cc(OC)ncn1 | -3 | 0.47
CC(C)(C)OC(=O)[C@]1(NC(=O)c2cc(F)ccc2Cl)CCOC1 | 5 | -0.48
NC(=O)N1CCCN(C(=O)c2cc3c(s2)CCCCCC3)CC1 | 7 | -0.75
Cc1cc2c(NC(=O)N3CCN[C@@H]4CS(=O)(=O)C[C@@H]43)cccc2nn1 | -7 | 0.91
CCN1C[C@H](CN(C)C(=O)c2ccc(NC(=O)c3cccs3)cc2)Oc2ccccc21 | 31 | -3.98
O=C(Nc1ccc(Br)cc1)c1c(F)c(F)c2c(c1F)N(Cc1ccccc1)CCS2(=O)=O | -1 | 0.19
